Source: article PMC10691697, “A small molecule exerts selective antiviral activity by targeting the human cytomegalovirus nuclear egress complex” (PLOS Pathogens, 2023)

Experiments:
MCMV M50-M53 = assay type: binding; settings: for normalized FRET signal relative to control without inhibitor: MCMV M50-M53, replicates
HSV-1 strain KOS = assay type: cell-based, herpes simplex virus 1
Method: Standard plaque reduction assays used to assess the antiviral activity of GK1 and GK2 against HSV in HFF cells were performed as described with minor modifications. Briefly, 1x10^5 HFF cells in each well of a 24-well plate were infected with ~ 100 PFU/well of HSV-1 strain KOS. After 2h, the inocula was removed and DMEM containing methylcellulose, 1% DMSO, and various concentrations of GK1 or GK2 was added. After two days, plaques were stained with crystal violet and counted. ED50’s for GK1 or GK2 were calculated as described above.

in vitro = assay type: cell-based, human; settings: human, read-out: CC50, cytotoxicity on HFF
Method: (§1) Cytotoxicities of various compounds were determined using a WST-1 assay that measures metabolic activity (Roche), and CC50’s were calculated as described previously.

HFF cells = assay: in vitro; assay type: cell-based, human
Method: as §1

[1] = test system: HCMV expressing GFP (53-F BADGFP)
[2] = test system: HCMV protein expression (IE1, IE2, UL57, UL50, UL53, pp28); assay: Western blot analysis of protein expression in infected cells; settings: 10 μM, MOI 1, 72 hpi, based on dilution series

With `C=CC(=O)Nc1cccc(Oc2cc(Cl)nc3[nH]ccc23)c1` [GK1] the “inhibition in HTRF assay for interactions of mouse cytomegalovirus NEC subunits” value (MCMV M50-M53) was “did not show inhibition”, the “normalized FRET signal relative to control without inhibitor” value (MCMV M50-M53; 0.20 μM compound) was 98.0000 and 101.0000 and 100.0000 and the “normalized FRET signal relative to control without inhibitor” value (MCMV M50-M53; 1.56 μM compound) was 98.0000. For the same compound, the “normalized FRET signal relative to control without inhibitor” value (MCMV M50-M53; 3.13 μM compound) was 98.0000 and 97.0000 (2×), the “normalized FRET signal relative to control without inhibitor” value (MCMV M50-M53; 6.25 μM compound) was 100.0000 and 95.0000 and 98.0000 and the “normalized FRET signal relative to control without inhibitor” value (MCMV M50-M53; 50.00 μM compound) was 100.0000 and 97.0000 and 98.0000. For the same compound, the “anti-HSV: number of plaques relative to DMSO vehicle” value (HSV-1 strain KOS; 0.40 μM compound, 2 dpi, replicates) was 98.0000 and 100.0000 (2×), the “ED50, anti-HSV-1” value (HSV-1 strain KOS; HFF, standard plaque reduction assay, 2 dpi) was 11 µM and the “cytotoxic potency relative to anti-HSV-1 potency” value (HSV-1 strain KOS; two-day WST-1 vs HSV-1 plaque reduction) was 3- to 4 fold. For the same compound, the CC50 (in vitro; WST-1, six days, in parallel with automated plaque reduction assay) was 22 µM, the CC50 (in vitro; WST-1, two days, in parallel with HSV-1 plaque reduction assay) was 40 µM and the “cytotoxicity on HFF: WST-1 absorbance relative to DMSO vehicle” value (HFF cells; 0.40 μM compound, 2 days, replicates) was 108.0000 and 100.0000 (2×). The CC50 (HFF cells; WST-1, six days, in parallel with automated plaque reduction assay, read-out: CC50, cytotoxicity on HFF) was 20 µM, the “reduction of plaque formation” value ([1]; 10 μM) was ≥ 5 fold and the “ED50, HCMV plaque formation” value ([1]; HFF, automated plaque reduction assay, 6 dpi) was 0.83 µM. For the same compound, the CC50/ED50 ([1]; anti-HCMV ED50 (APRA) and parallel WST-1 CC50) was 27 and the “effect on expression of IE1, IE2, UL57, UL50, UL53, pp28” value [2] was < 2 fold.

Where “and” joins values, the source holds several entries; their conditions need not be identical. Equal values may be shown once. Read-outs that look alike come from different tables or passages of the source.
